{"source": "PubChem BioAssay AID485344", "about": "(National Center for Advancing Translational Sciences (NCATS), 2010)", "note": "The whole screen tested about 340,000 compounds, of which about 6,900 (2%) were called active. Cut-off read from the data, not from the text of the source: active = inhibition above about 30%; inactive = below that, where a call was filed. The entries are a selection whose mix differs from that of the whole data set. Where no call is shown, the source filed none.", "data": [{"biological_target": "D(2) dopamine receptor (Homo sapiens) (UniProt P14416)", "sequence (P14416 whole entry, looked up)": "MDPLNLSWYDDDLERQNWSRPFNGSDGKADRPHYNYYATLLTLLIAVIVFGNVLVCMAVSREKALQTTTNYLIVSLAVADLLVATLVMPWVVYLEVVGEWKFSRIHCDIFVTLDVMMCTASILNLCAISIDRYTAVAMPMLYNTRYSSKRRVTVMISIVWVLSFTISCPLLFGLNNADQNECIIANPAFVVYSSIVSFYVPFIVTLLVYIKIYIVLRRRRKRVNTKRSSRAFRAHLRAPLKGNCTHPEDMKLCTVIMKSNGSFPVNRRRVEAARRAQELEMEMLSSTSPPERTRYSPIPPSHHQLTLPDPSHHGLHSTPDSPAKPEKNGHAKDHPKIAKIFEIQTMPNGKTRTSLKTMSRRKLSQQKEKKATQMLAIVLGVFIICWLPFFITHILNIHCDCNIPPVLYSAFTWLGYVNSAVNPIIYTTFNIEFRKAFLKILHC", "test": "HTS Assay for Allosteric Antagonists of the Human D2 Dopamine Receptor: Primary Screen for Antagonists; note: 0% is about no effect", "conditions": "HEK293 TREx D2 cells, calcium flux, dopamine EC80; at 10 µM; stronger effect = higher value", "procedure,_shortened": "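Overnight-induced (tetracycline, 30 C) HEK293 T-REx cells carrying force-coupled D2 receive a no-wash calcium dye, then compound, then EC80 dopamine at 180 s; signals are read kinetically throughout.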", "values": [{"smiles": "Cc1ccc(NC(=O)c2ccc([N+](=O)[O-])o2)c(C)c1", "inhibition": "active: 33.1%"}, {"smiles": "Cn1c(SCC(=O)Nc2ccc(F)cc2)nc2c([nH]c3ccccc32)c1=O", "inhibition": "-5.46%"}, {"smiles": "COc1cccc(-c2cc(C(=O)NCc3ccccc3)[nH]n2)c1", "inhibition": "0.0713%"}, {"smiles": "CCOc1ccc(C(C)C)cc1S(=O)(=O)Nc1cccc(-c2ccc(N3CCOCC3)nn2)c1", "inhibition": "-3.68%"}, {"smiles": "CCN(C(=O)c1cc(S(=O)(=O)N2CCOCC2)cn1C)c1ccc(OC)cc1", "inhibition": "5.11%"}, {"smiles": "Cc1ccc(NC(=O)C(Cc2ccccc2)NS(=O)(=O)c2ccc3c(c2)c(=O)n(C)c(=O)n3C)cc1", "note": "(stereo not drawn)", "inhibition": "-2.76%"}, {"smiles": "COCCN=c1scc(-c2cccs2)n1/N=C/c1ccc(O)c(O)c1O", "inhibition": "active: 73.3%"}, {"smiles": "Cc1ccc(CN2C(=O)c3ccccc3S(=O)(=O)c3ccc(C(=O)OCC4CCCO4)cc32)cc1", "note": "(stereo not drawn)", "inhibition": "-1.09%"}, {"smiles": "Cn1cc(C(=O)O)c(=O)c2cc(S(=O)(=O)N3CCCCC3)ccc21", "inhibition": "2.69%"}, {"smiles": "CCOc1nc(NC(=O)NS(=O)(=O)Oc2ccc(Cl)cc2)nc(-c2ccccc2)n1", "inhibition": "-1.76%"}, {"smiles": "COc1cccc(NC(=O)CN(C)C(=O)c2cccc(NS(=O)(=O)c3ccccc3)c2)c1", "inhibition": "active: 31.7%"}, {"smiles": "CCCC(=O)Oc1c(Sc2ccc(Cl)cc2)c(C)nn1-c1ccccc1", "inhibition": "2.04%"}, {"smiles": "CCCCN(CC)CCCn1cnc2c([nH]c3ccc(Cl)cc32)c1=O", "inhibition": "6.31%"}, {"smiles": "CCC(=O)Nc1ccccc1-c1nc2ccccc2n(C(CC)C(=O)Nc2cccc(C(C)=O)c2)c1=O", "note": "(stereo not drawn)", "inhibition": "5.54%"}, {"smiles": "CC(C)(C)C1CCc2nc(NC(=O)COc3ccc(F)cc3)sc2C1", "note": "(stereo not drawn)", "inhibition": "7.53%"}, {"smiles": "CC(=O)Nc1ccc(-n2cc3c(c2-c2ccc(C)cc2)c(=O)n(C)c(=O)n3C)cc1", "inhibition": "-2.64%"}, {"smiles": "Cc1oc(-c2ccc(C(=O)Nc3ccc(F)cc3F)cc2)nc1COc1ccccc1", "inhibition": "-9.93%"}, {"smiles": "CCN(CC)CCNC(=O)c1cn(-c2ccccc2)nc1-c1cccs1", "inhibition": "active: 36.8%"}, {"smiles": "CC(C)(C)c1ccc(OCCSc2nc(-c3cccs3)nc3cc(=O)[nH]n23)cc1", "inhibition": "-14.5%"}, {"smiles": "COc1ccc(Nc2oc(-c3ccc(COc4ccc(OC)cc4)o3)nc2C#N)cc1", "inhibition": "4.43%"}, {"smiles": "O=C(Cn1ncc2c3ccccc3n(Cc3ccc(Cl)cc3)c2c1=O)NCCCc1ccccc1", "inhibition": "-1.91%"}, {"smiles": "CC(C)c1ccc(Nc2cc(C(=O)NCCc3ccccc3)c3ccccc3n2)cc1", "inhibition": "4.02%"}, {"smiles": "CCC(C)NC(=O)C1CCN(C(=O)c2cc3sccc3n2Cc2ccc(Cl)cc2)CC1", "note": "(stereo not drawn)", "inhibition": "-11.8%"}, {"smiles": "CCc1ccccc1N1CC(c2nc3ccccc3n2CC(C)C)CC1=O", "note": "(stereo not drawn)", "inhibition": "5%"}, {"smiles": "CCCCN(CC)c1ncnc2c1sc1nc(N3CCOCC3)c3c(c12)CCCC3", "inhibition": "-9.29%"}, {"smiles": "Cc1ccc(C)c(S(=O)(=O)c2nnn3c2nc(N2CCCC2)c2sccc23)c1", "inhibition": "-8.09%"}, {"smiles": "COc1ccc2[nH]cc(CCNC(=O)Nc3ccc(F)cc3)c2c1", "inhibition": "7.1%"}, {"smiles": "Cc1ccc(C)c(N2CCN(C(=O)c3cc(S(=O)(=O)N4CCCCC4)cn3C)CC2)c1", "inhibition": "-8.37%"}, {"smiles": "CCCC(=O)Nc1nnc(SCc2cc(=O)c3cc(C)ccc3[nH]2)s1", "inhibition": "7.64%"}, {"smiles": "O=C(c1ccc(CSc2nc3ccncc3n2Cc2ccccc2F)cc1)N1CCCCCC1", "inhibition": "0.667%"}, {"smiles": "CC(C)CCNC(=O)N1CCN(S(=O)(=O)c2ccc3c(ccn3C)c2)CC1", "inhibition": "14.4%"}, {"smiles": "CCOC(=O)c1c(S(=O)(=O)N2CCCC(C(=O)Nc3cc(C)ccc3OC)C2)c(C)n(C)c1C", "note": "(stereo not drawn)", "inhibition": "5.33%"}, {"smiles": "CCOc1ccc(CCNC(=O)CCc2cn(Cc3ccc(C)cc3)c3ccccc23)cc1", "inhibition": "-3.41%"}, {"smiles": "COc1cccc(C2=NN(C(C)=O)C(c3cn(-c4ccccc4)nc3-c3cccs3)C2)c1", "note": "(stereo not drawn)", "inhibition": "7.77%"}, {"smiles": "CC1CCN(S(=O)(=O)c2ccc3c(c2)N(CC(=O)N2CCN(c4ccc(Cl)cc4)CC2)C(=O)CO3)CC1", "inhibition": "0.487%"}, {"smiles": "COc1ccc(/C=C/c2onc(C)c2S(=O)(=O)N2CCC(C(=O)N3CCC(C)CC3)CC2)cc1", "inhibition": "-7.97%"}, {"smiles": "c1ccc2c(OCCCN3CCCCCC3)cccc2c1", "inhibition": "active: 73.9%"}, {"smiles": "O=C(c1ccc2c(c1)OCO2)N1CCC2(CC1)Oc1ccc(Cl)cc1C(=O)C21CC(c2ccccc2)=NO1", "note": "(stereo not drawn)", "inhibition": "active: 42.1%"}, {"smiles": "Cc1ccccc1CSc1nc(-c2ccccc2)nc2c1Cc1c(CO)cnc(C)c1O2", "inhibition": "-10.2%"}, {"smiles": "COc1cccc(C(=O)NCC(c2ccc(N(C)C)cc2)N2CCOCC2)c1OC", "note": "(stereo not drawn)", "inhibition": "7.33%"}, {"smiles": "c1ccc(CN2CCC(Nc3ncnc4sccc34)CC2)cc1", "inhibition": "active: 77.5%"}, {"smiles": "Cc1cccc(OCC(=O)N(Cc2cccc(Cl)c2)Cc2ccco2)c1C", "inhibition": "-9.95%"}, {"smiles": "COc1ccc2cc(-c3cn4c(n3)sc3cc(F)ccc34)c(=O)oc2c1", "inhibition": "-8.87%"}, {"smiles": "Cc1ccc(S(=O)(=O)c2nc(-c3ccccc3)oc2N2CCCCCC2)cc1", "inhibition": "-1.51%"}, {"smiles": "Cc1ccc(NC(=O)N2CCN(c3nnc(C)c4c(C)n(-c5ccccc5)nc34)CC2)c(Cl)c1", "inhibition": "-10.1%"}, {"smiles": "CCc1ccccc1NC(=O)CCCN1C(=O)COc2ccc(C)cc21", "inhibition": "-4.19%"}, {"smiles": "CCNc1nc(Oc2ccc(OCC(=O)OC)nn2)nc(N2CCOCC2)n1", "inhibition": "2.39%"}, {"smiles": "CCOc1ccc(-c2cccc(NS(=O)(=O)c3ccc(Cl)s3)c2)nn1", "inhibition": "5.25%"}]}]}
